Values marked as one replicate rest on one cluster of the flow cell; about a third of the high ones do not repeat.
Each sequence was assayed on ATP (assay: switch fluorescence ratio, 500 uM ATP over buffer (Cy3 cluster intensity, sum of 5 cycles each) (fold (ratio)); higher = stronger signal-on switching upon ATP binding; sequences stand for … in TCGTCGGCAGCGTCAGATGTGTATAAGAGACAGTTTTTTTTTTTTTTTTTTTTTTTTT…TC). Settings: aptamer strand: ATP DNA aptamer (quencher-CACCTGGGGGAGTATTGCGGAGGAAGG + anchor), 100 nM annealed; ATP concentration: 500 uM; one replicate.
In short: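 Clusters carrying Cy3-labelled switching strands on a modified Illumina MiSeq flow-cell were annealed to 100 nM quencher-labelled ATP aptamer and imaged in selection buffer. They were imaged again after 15 min with 500 uM ATP at 22 °C, over five buffer/ATP cycles with NaOH stripping and re-annealing in between. For each cluster, the fluorescence ratio is the summed Cy3 intensity of the target cycles divided by that of the buffer cycles, averaged per switch-domain sequence. Clusters outside 100-1000 RFU were left out.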
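Also: ATP exposure 15 min at 22 °C before imaging.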

| Sequence | switch fluorescence ratio |
| --- | --- |
| ATAGGGCAGT | 0.974 |
| ATAGGGGTTG | 1.01 |
| ATAGGGTAGC | 1.01 |
| ATAGTAGCG | 0.962 |
| ATAGTAGGAC | 1.03 |
| ATAGTCACCG | 1.07 |
| ATAGTCAGCC | 1.01 |
| ATAGTCATTA | 1.07 |
| ATAGTCTGAT | 0.953 |
| ATAGTCTGTA | 0.982 |
| ATAGTGAGTC | 0.976 |
| ATAGTGTACC | 1.07 |
| ATAGTTCGAA | 1.03 |
| ATATAAGTT | 1.01 |
| ATATACTCGG | 1.04 |
| ATATAGATCG | 1.03 |
| ATATAGGATG | 0.954 |
| ATATCAATCA | 1.01 |
| ATATCACGAC | 1.1 |
| ATATCAGTGC | 0.958 |
| ATATCCAAAT | 1 |
| ATATCGAGTG | 1.01 |
| ATATCTATG | 0.992 |
| ATATCTCACA | 1.06 |
| ATATGAAATT | 0.967 |

| Sequence | switch fluorescence ratio |
| --- | --- |
| ATATGAGAAA | 1.03 |
| ATATGATTGC | 1.04 |
| ATATGCGGGA | 0.944 |
| ATATGGGCGC | 1.03 |
| ATATGTCTCA | 0.989 |
| ATATGTGGT | 0.962 |
| ATATGTGTTA | 0.971 |
| ATATTAGACC | 0.973 |
| ATATTAGGTG | 1.18 |
| ATATTATACA | 1.02 |
| ATATTCTGCT | 0.968 |
| ATATTGGTCG | 1.04 |
| ATATTTGTTG | 0.956 |
| ATCAAAAGGT | 1.04 |
| ATCAAAATGC | 1.59 |
| ATCAAAGCGA | 1.03 |
| ATCAAATCGT | 0.974 |
| ATCAACGATG | 1.01 |
| ATCAACGCCG | 1.09 |
| ATCAACTGGA | 1.13 |
| ATCAAGCCGA | 0.951 |
| ATCAATGGGG | 0.969 |
| ATCAATGGTG | 1.07 |
| ATCAATTAGC | 0.966 |
| ATCACACACC | 1.44 |

| Sequence | switch fluorescence ratio |
| --- | --- |
| ATCACATGTG | 1.02 |
| ATCACCCCTA | 1.22 |
| ATCACGCCCA | 1.18 |
| ATCACTAGAT | 0.961 |
| ATCACTGGAT | 1.06 |
| ATCACTTCGC | 1.11 |
| ATCAGCGGTC | 1.12 |
| ATCAGGAGGT | 1.05 |
| ATCAGGGCTT | 0.975 |
| ATCAGGTAGG | 0.998 |
| ATCATATAAT | 0.991 |
| ATCATATTG | 1.02 |
| ATCATCCGGC | 1.14 |
| ATCATCGGTC | 1.03 |
| ATCATGATTT | 0.964 |
| ATCATGTTGT | 1.02 |
| ATCCACACCT | 1.34 |
| ATCCACCTCT | 1.05 |
| ATCCACGCAA | 1.08 |
| ATCCAGACCC | 1.12 |
| ATCCCCGGG | 1.54 |
| ATCCCCGTCT | 0.985 |
| ATCCCGAGTG | 1.21 |
| ATCCCGGAGC | 1.63 |
| ATCCCGGTGT | 1.65 |

| Sequence | switch fluorescence ratio |
| --- | --- |
| ATCCCGTTTT | 1.02 |
| ATCCCTGCTC | 1.03 |
| ATCCCTGTTC | 0.968 |
| ATCCGAG | 1.08 |
| ATCCGAGTGT | 1.04 |
| ATCCGCGGAA | 2.32 |
| ATCCGCGGCG | 1.14 |
| ATCCGTGAAT | 1.25 |
| ATCCGTTGG | 0.994 |
| ATCCTGCATC | 1.48 |
| ATCCTGGTTG | 0.979 |
| ATCCTTGAGT | 1.01 |
| ATCCTTTATC | 1.03 |
| ATCGAAAGAG | 1.02 |
| ATCGAAAGAT | 0.981 |
| ATCGAAAGGT | 1.06 |
| ATCGAAGTTA | 1.03 |
| ATCGACACAG | 0.995 |
| ATCGACCAGT | 1 |
| ATCGACTTAA | 1.04 |
| ATCGACTTGT | 0.981 |
| ATCGAGAAAT | 1.02 |
| ATCGAGAGT | 1.04 |
| ATCGAGGAGG | 0.979 |
| ATCGATCACC | 1.07 |
